The chains are these.
B1: LSR, Q86X29 (protein)
chain: MQQDGLGVGTRNGSGKGRSVHPSWPWCAPRPLRYFGRDARARRAQTAAMALLAGGLSRGLGSHPAAAGRDAVVFVWLLLSTWCTAPARAIQVTVSNPYHVVILFQPVTLPCTYQMTSTPTQPIVIWKYKSFCRDRIADAFSPASVDNQLNAQLAAGNPGYNPYVECQDSVRTVRVVATKQGNAVTLGDYYQGRRITITGNADLTFDQTAWGDSGVYYCSVVSAQDLQGNNEAYAELIVLGRTSGVAELLPGFQAGPIEDWLFVVVVCLAAFLIFLLLGICWCQCCPHTCCCYVRCPCCPDKCCCPEALYAAGKAATSGVPSIYAPSTYAHLSPAKTPPPPAMIPMGPAYNGYPGGYPGDVDRSSSAGGQGSYVPLLRDTDSSVASEVRSGYRIQASQQDDSMRVLYYMEKELANFDPSRPGPPSGRVERAMSEVTSLHEDDWRSRPSRGPALTPIRDEEWGGHSPRSPRGWDQEPAREQAGGGWRARRPRARSVDALDDLTPPSTAESGSRSPTSNGGRSRAYMPPRSRSRDDLYDQDDSRDFPRSRDPHYDDFRSRERPPADPRSHHHRTRDPRDNGSRSGDLPYDGRLLEEAVRKKGSEERRRPHKEEEEEAYYPPAPPPYSETDSQASRERRLKKNLALSRESLVV
B2: LRAT, O95237 (protein)
chain: MKNPMLEVVSLLLEKLLLISNFTLFSSGAAGEDKGRNSFYETSSFHRGDVLEVPRTHLTHYGIYLGDNRVAHMMPDILLALTDDMGRTQKVVSNKRLILGVIVKVASIRVDTVEDFAYGANILVNHLDESLQKKALLNEEVARRAEKLLGFTPYSLLWNNCEHFVTYCRYGTPISPQSDKFCETVKIIIRDQRSVLASAVLGLASIVCTGLVSYTTLPAIFIPFFLWMAG
B3: LYPD3, O95274 (protein)
chain: MDPARKAGAQAMIWTAGWLLLLLLRGGAQALECYSCVQKADDGCSPNKMKTVKCAPGVDVCTEAVGAVETIHGQFSLAVRGCGSGLPGKNDRGLDLHGLLAFIQLQQCAQDRCNAKLNLTSRALDPAGNESAYPPNGVECYSCVGLSREACQGTSPPVVSCYNASDHVYKGCFDGNVTLTAANVTVSLPVRGCVQDEFCTRDGVTGPGFTLSGSCCQGSRCNSDLRNKTYFSPRIPPLVRLPPPEPTTVASTTSVTTSTSAPVRPTSTTKPMPAPTSQTPRQGVEHEASRDEEPRLTGGAAGHQDRSNSGQYPAKGGPQQPHNKGCVAPTAGLAALLLAVAAGVLL
B4: CEBPG, P53567 (protein)
chain: MSKISQQNSTPGVNGISVIHTQAHASGLQQVPQLVPAGPGGGGKAVAPSKQSKKSSPMDRNSDEYRQRRERNNMAVKKSRLKSKQKAQDTLQRVNQLKEENERLEAKIKLLTKELSVLKDLFLEHAHNLADNVQSISTENTTADGDNAGQ
B5: DCAF4L1, Q3SXM0 (protein)
chain: MEAERLRLLEEEAKLKKVARMGFNASSMLRKSQLGFLNVTSYSRLANELRVSCMERKKVQIRSLDPSSLASDRFNFILASTNSDQLFVVNQVEVEGSKYGIISLRTLKIPSFHVYVLRNLYVPNRKVKSLCWASLNQLDSHVLLCFEGITDAPSCAVLLPASRFLSVHTRVNQPGMLCSFQIPEAWSCAWSLNTRAYHCFSAGLSQQVLLTSVATGHQQSFDTSSDVLAQQFASTAPLLFNGCRSGEIFAIDLRCRNRGKGWRATRLFHDSAVTSVQILQEEQCLMASDMTGKIKLWDLRATKCVRQYEGHVNESAYLPLHVHEEEGIVVAVGQDCYTRIWSLHDAHLLRTIPSPYSASEDDIPSVAFASRLGGIRGAAPGLLMAVRQDLYCFPFS
B6: IER3IP1, Q9Y5U9 (protein)
chain: MAFTLYSLLQAALLCVNAIAVLHEERFLKNIGWGTDQGIGGFGEEPGIKSQLMNLIRSVRTVMRVPLIIVNSIAIVLLLLFG

The other results are listed elsewhere or left out. Interaction screen of human proteins with wild-type SARS-CoV-2 proteins by split-DHFR complementation in yeast, 1 µg/mL methotrexate. Value = fitness of the pair (three or more lineages) minus that of the viral protein without a human partner, on a scale set by negative (0) and fused positive (1) controls, mean of up to three cultures; higher = more likely to interact. Active = false discovery rate below 0.05 (one-sided t-test) in at least one culture. Nearly all pairs are not hits, and differences among them are mostly noise (correlation between cultures about 0.3); most hits were seen in one culture only. Human sequences are the Swiss-Prot entries looked up by gene name; the clone may be another isoform. NSP2 values were corrected by the authors for a growth advantage. Listed are human proteins with a hit and a random twelfth of the others.

The target in the first experiment is SARS-CoV-2 NSP10. Nature of the experiment: yeast fitness gain over the viral ORF with no human partner (scaled fitness); higher = more likely to interact. The procedure: (§1)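 Split mouse DHFR complementation in pooled diploid yeast: human ORFeome clones carry one fragment and viral ORFs the other; barcoded lineages compete in 1 µg/mL methotrexate and fitness is read by barcode sequencing in up to three cultures.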
B1: the yeast fitness gain was inactive: 0.0053.
With B2, the yeast fitness gain was inactive: 0.0952.
The same measure, in the same setting: next, B3: inactive: 0.00161; B4: inactive: 0.0317; B5: inactive: 0.0331.
For the molecule B6, the yeast fitness gain was inactive: 0.018.

The target of another experiment is SARS-CoV-2 NSP13. Described as above. The procedure: as §1
With B1, the yeast fitness gain is inactive: 0.0662.
Turning to B2, the yeast fitness gain was inactive: -0.104.
The same measure, in the same setting: next, B3: inactive: 0.000665; B4: inactive: -0.184; B6: inactive: 0.0337.

For another experiment, the target named is SARS-CoV-2 NSP2. Described as above. The method, then:
as §1
On to B1, for which the yeast fitness gain is inactive: -0.085.
Take B3: the yeast fitness gain was inactive: -0.288.
Same read-out and setting: the result for B6 reads inactive: -0.0599.

The next experiment addresses SARS-CoV-2 NSP4. The description is as above. The procedure:
as §1
Turning to B1, the yeast fitness gain is inactive: -0.0996.

The target of the next experiment is SARS-CoV-2 NSP5. The experiment is described as above. The method, then:
as §1
With B1, the yeast fitness gain is inactive: 0.0468.
Regarding B2, the yeast fitness gain is inactive: 0.0124.
Regarding B3, the yeast fitness gain is inactive: 0.00869.
The same measure, in the same setting: the result for B5 reads inactive: 0.0281; that for B6, inactive: 0.00162.

The target in the next experiment is SARS-CoV-2 ORF10. The experiment is described as above. The method, then: as §1
Consider B1, for which the yeast fitness gain is inactive: -0.0361.
In the case of B2, the yeast fitness gain was inactive: -0.106.
For the molecule B3, the yeast fitness gain is inactive: 0.0157.

For another experiment, the target named is SARS-CoV-2 ORF3B. Described as above. The method, then: as §1
Consider B1, for which the yeast fitness gain is inactive: 0.0379.
With B3, the yeast fitness gain was inactive: 0.0397.
The same measure, in the same setting: the result for B6 reads inactive: -0.133.

For a further experiment, the target named is SARS-CoV-2 ORF6. The experiment is described as above. The method, then:
as §1
Turning to B1, the yeast fitness gain is inactive: 0.114.
As to B2, the yeast fitness gain is inactive: 0.0312.
Regarding B3, the yeast fitness gain was inactive: -0.0125.
On to B4, for which the yeast fitness gain is inactive: -0.0566.
The same measure, in the same setting: next, B6: inactive: -0.0773.

The target of a further experiment is SARS-CoV-2 ORF7A. Described as above. The procedure: as §1
For B1, the yeast fitness gain was inactive: -0.244.
Turning to B4, the yeast fitness gain is inactive: -0.0454.
As for B5, the yeast fitness gain was inactive: 0.0853.

The target in the next experiment is SARS-CoV-2 ORF7B. The experiment is described as above. The method, then: as §1
In the case of B1, the yeast fitness gain was inactive: -0.192.
On to B2, for which the yeast fitness gain is inactive: 0.105.
The same measure, in the same setting: next, B3: inactive: 0.0384; B6: inactive: 0.0438.

For another experiment, the target named is SARS-CoV-2 ORF9B. The experiment is described as above. The method, then: as §1
Take B1: the yeast fitness gain was inactive: 0.126.
Same read-out and setting: next, B2: inactive: 0.0853.
Turning to B3, the yeast fitness gain is inactive: 0.0583.
As for B4, the yeast fitness gain was inactive: 0.00449.
The same measure, in the same setting: the result for B5 reads inactive: 0.0354; that for B6, inactive: -0.135.

For a further experiment, the target named is SARS-CoV-2 NSP12. The description is as above. The procedure:
as §1
On to B2, for which the yeast fitness gain was inactive: -0.0574.
Same read-out and setting: next, B3: inactive: 0.0142; B6: inactive: -0.197.

Another experiment has as its target SARS-CoV-2 NSP8. The experiment is described as above. The procedure: as §1
B2: the yeast fitness gain was inactive: -0.119.
For the molecule B3, the yeast fitness gain is inactive: 0.00381.
The same measure, in the same setting: next, B4: inactive: 0.00543.

Another experiment has as its target SARS-CoV-2 ORF8. The experiment is described as above. The procedure: as §1
Regarding B2, the yeast fitness gain was inactive: -0.142.
Take B3: the yeast fitness gain is inactive: 0.0149.
The same measure, in the same setting: next, B4: inactive: -0.0813.
Same read-out and setting: next, B6: inactive: 0.065.

A further experiment addresses SARS-CoV-2 S. Described as above. The method, then:
as §1
As for B2, the yeast fitness gain was inactive: 0.0711.
Regarding B3, the yeast fitness gain is inactive: 0.0369.
On the same count and under the same terms, next, B4: inactive: -0.198.

A further experiment concerns the target SARS-CoV-2 NSP15. The description is as above. The procedure: as §1
Consider B3, for which the yeast fitness gain was inactive: 0.0418.
Same read-out and setting: the result for B6 reads inactive: -0.0591.

Another experiment has as its target SARS-CoV-2 NSP16. The experiment is described as above. The procedure:
as §1
Take B3: the yeast fitness gain was inactive: 0.0246.

A further experiment has as its target SARS-CoV-2 NSP6. The experiment is described as above. The procedure: as §1
With B3, the yeast fitness gain was inactive: 0.0527.
The same measure, in the same setting: the result for B5 reads inactive: -0.0214.

A further experiment deals with SARS-CoV-2 NSP7. The description is as above. The procedure:
as §1
For B3, the yeast fitness gain is inactive: -0.0136.
Still for that read-out and setting: next, B5: inactive: 0.125; B6: inactive: -0.0281.

In another experiment the target is SARS-CoV-2 ORF3A. Described as above. The method, then: as §1
For the molecule B3, the yeast fitness gain is inactive: -0.0201.

Another experiment has as its target SARS-CoV-2 ORF9Bwu (the 73-codon ORF). Described as above. The method, then:
as §1
Regarding B3, the yeast fitness gain is inactive: -0.174.
Same read-out and setting: the result for B6 reads inactive: -0.00962.

The target in a further experiment is SARS-CoV-2 NSP9. The experiment is described as above. The method, then:
as §1
In the case of B6, the yeast fitness gain was inactive: 0.0413.
